{"source": "PubChem BioAssay AID485294", "about": "(National Center for Advancing Translational Sciences (NCATS), 2010)", "note": "Among all 370,000 compounds or so, about 150 (0.041%) were called active. The inconclusive results got no clear call from the source; some entries with a clear call stand among them for comparison. Calls come from the whole dose curve; as a rule, active = well fitted inhibition curve with a large enough effect; inconclusive = small, poorly fitted or top-dose-only effect; inactive = flat fitted curve, though single readings scatter. Potencies of inconclusive entries are left out as doubtful fits. Potency is the fitted concentration of half-maximal effect; tags give direction and shape of the fitted curve.", "data": [{"target": "Beta-lactamase (Escherichia coli (strain K12)) (UniProt P00811)", "sequence (P00811 whole entry, looked up)": "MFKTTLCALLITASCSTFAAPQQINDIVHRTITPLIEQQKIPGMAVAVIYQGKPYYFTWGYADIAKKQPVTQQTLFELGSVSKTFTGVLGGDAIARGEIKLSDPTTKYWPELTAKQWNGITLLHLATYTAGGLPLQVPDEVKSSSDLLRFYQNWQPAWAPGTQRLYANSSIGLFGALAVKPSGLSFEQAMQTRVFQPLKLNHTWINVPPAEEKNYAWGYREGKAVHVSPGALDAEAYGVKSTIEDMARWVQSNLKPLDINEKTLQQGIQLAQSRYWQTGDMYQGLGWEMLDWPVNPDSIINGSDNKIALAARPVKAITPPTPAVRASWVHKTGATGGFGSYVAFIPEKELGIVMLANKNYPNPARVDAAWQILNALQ", "assay": "qHTS Inhibitors of AmpC Beta-Lactamase (assay with detergent); note: nearly all actives have a fitted effect of over 25% in size;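 for activity change, negative = inhibition: 0% = no-compound wells and -100% = no-enzyme wells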", "details": "AmpC hydrolysis of nitrocefin, absorbance 480 nm, 0.01% Triton; activity change, negative = inhibition: at 114 µM (top of the series)", "outline": "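AmpC (5.3 nM in the dispensed reagent) in 20 mM phosphate pH 7.0 with 0.01% (detergent screen) or 0.0001% Triton X-100 was preincubated with compounds for 15 min at room temperature. Nitrocefin was then added from an 800 uM solution, and hydrolysis was followed at 480 nm.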", "values": [{"molecule": "Cc1ccc(C)c(OCCC(=O)OCC(=O)N(C)c2c(N)n(Cc3ccccc3)c(=O)[nH]c2=O)c1", "Potency": "inconclusive [inhibitor, full curve, poor fit]"}, {"molecule": "COc1cccc(-c2nc(-c3ccccc3)nc(N3CCN(C)CC3)c2C#N)c1", "Potency": "inconclusive [inhibitor, partial curve]"}, {"molecule": "CS(=O)(=O)NN1C(=O)c2ccccc2NC1c1cccc(O)c1", "note": "(stereo not drawn)", "Potency": "inconclusive [inhibitor, full curve, poor fit]"}, {"molecule": "COc1ccccc1S(=O)(=O)c1ccccc1[N+](=O)[O-]", "Potency": "inconclusive [inhibitor, full curve, poor fit]"}, {"molecule": "OCC1(CCCc2ccccc2)CCN(C2CCC2)CC1", "Potency": "inconclusive [inhibitor, full curve]"}, {"molecule": "COc1ccc(CCNC(=O)c2cnn(-c3ccc(F)cc3)c2C2CCN(C(=O)OC(C)(C)C)CC2)c(OC)c1", "activity change, negative = inhibition": "inactive: -1.2%"}, {"molecule": "CC1CCCN(C(=O)Cn2c(=O)oc3ccccc32)C1", "note": "(stereo not drawn)", "Potency": "inconclusive [inhibitor, full curve, poor fit]"}, {"molecule": "COc1ccc(C2C(C(=O)Nc3cc(OC)c(OC)c(OC)c3)c3ccccc3C(=O)N2C)cc1OC", "note": "(stereo not drawn)", "activity change, negative = inhibition": "inactive: -1.7%"}, {"molecule": "CCOc1ccc(C2=NNC(c3cccs3)=Nc3ccc(OC)cc32)cc1", "activity change, negative = inhibition": "inactive: -8.29%"}, {"molecule": "CCOC(=O)c1cc(-c2ccccc2)nn1Cc1cc(C)no1", "Potency": "inconclusive [inhibitor, single point]"}, {"molecule": "Cc1cc(C)n(-c2cc(Cl)cc(Cl)c2)c(=O)c1C#N", "Potency": "inconclusive [inhibitor, partial curve, poor fit]"}, {"molecule": "O=C(NCc1ccco1)C1CCCN(S(=O)(=O)c2ccc(-n3cnnn3)cc2)C1", "note": "(stereo not drawn)", "Potency": "inconclusive [inhibitor, full curve, poor fit]"}, {"molecule": "COc1ccc(N2CCN(C(=O)C3CCN(S(=O)(=O)c4ccccc4)CC3)CC2)cc1", "activity change, negative = inhibition": "inactive: 4.05%"}, {"molecule": "CCCOc1ccc(C(F)(F)F)cc1NC(=O)CCc1c(C)noc1C", "Potency": "inconclusive [inhibitor, full curve, poor fit]"}, {"molecule": "CSc1ccc(Cl)c(C(=O)NCCOc2cc(C)ccc2C(C)C)c1", "Potency": "inconclusive [inhibitor, partial curve]"}, {"molecule": "COc1ccc(N2CCN(c3ncnc4scc(-c5ccc(F)cc5)c34)CC2)cc1", "Potency": "inconclusive [inhibitor, partial curve, poor fit]"}, {"molecule": "COC(=O)c1sccc1NC(=O)COc1ccccc1Cl", "Potency": "inconclusive [inhibitor, single point]"}, {"molecule": "O=C(N/N=C/c1cc([N+](=O)[O-])cc([N+](=O)[O-])c1O)C(O)(c1ccccc1)c1ccccc1", "Potency": "inconclusive [inhibitor, single point]"}]}]}
